Assay results: the supplement of paper PMC5499739
Over roughly 16,000 sequences, “Z-score” has its median near -0.37; the highest 2% begin near 3.2. Some of the results follow.

test system: RBM10 RRM1-ZnF (GST-tagged construct); assay: RNAcompete 7-mer binding Z-score; higher = stronger binding preference
Description: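 RNAcompete: 20 pmol GST-tagged RBM10 RNA-binding constructs were incubated with a designed RNA pool of about 241,000 sequences up to 41 nt (1.5 nmol) on glutathione beads for 30 min at 4 °C and washed. Bound RNAs were identified by microarray hybridisation. Each RNA 7-mer is scored by a one-sided Z-score of its enrichment, computed over probes that contain the 7-mer within longer pool sequences.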

In order of rising “RNAcompete 7-mer binding Z-score” value:
1. CUGCUUU  -0.912
2. ACUUCCC  -0.899
3. CAUGCUU  -0.867
4. CAACUUU  -0.847
5. CUCAUUA  -0.831
6. ACCCGUA  -0.821
7. GACCUCA  -0.811
8. ACCCGUC  -0.808
9. CCUUCGU  -0.808
10. UCUAUGC  -0.805
11. CCAAUCU  -0.802
12. UUUCGAC  -0.802
13. CACCUUA  -0.798
14. AUAUUCC  -0.798
15. CAUUUGU  -0.795
16. UUCCAAA  -0.792
17. GCUCUGC  -0.782
18. CUUUACA  -0.776
19. ACUCACU  -0.776
20. ACGCCUA  -0.766
21. UUCUUAC  -0.763
22. UCCCGAA  -0.763
23. UUUUUUA  -0.759
24. CUGUCGA  -0.756
25. CUAAAAC  -0.756
26. AACAUUC  -0.753
27. UACAGCC  -0.746
28. AUAAUUC  -0.74
29. AUCGCUA  -0.724
30. AAGUUCC  -0.724
31. UAUCCGU  -0.714
32. CCAGCCA  -0.711
33. UUCUGGC  -0.704
34. GCCGCCU  -0.701
35. UUGCAUU  -0.701
36. ACUCGUC  -0.701
37. CUACUGU  -0.694
38. CUCGUCA  -0.694
39. CCGUCUC  -0.688
40. UCCAGAC  -0.688
41. GAUGCCU  -0.675
42. GCGCUUU  -0.675
43. GAAUUCC  -0.662
44. CAAGACC  -0.646
45. UCUAUCU  -0.646
46. CUAUCAG  -0.636
47. AGGCUCU  -0.636
48. AUCCCCU  -0.633
49. UCUGUGU  -0.633
50. ACCGCCG  -0.626
51. UGCCAGC  -0.626
52. CGCUGAC  -0.626
53. UCUAAUC  -0.626
54. CGCGAUU  -0.623
55. UUCGAAC  -0.62
56. AACGAUC  -0.607
57. UUACACC  -0.6
58. GACUUCA  -0.6
59. GAAAACC  -0.594
60. GCCCGAA  -0.591
61. CAGUACU  -0.587
62. GAUCACU  -0.581
63. GACAACU  -0.581
64. UAGCGCC  -0.574
65. GACCACU  -0.571
66. CUGUGCC  -0.571
67. CUAUUGA  -0.565
68. UACAUCA  -0.555
69. CCACCCU  -0.532
70. UCGCGUA  -0.532
71. UGCUGCC  -0.513
72. UCUCAGA  -0.49
73. CCGACAC  -0.49
74. UAUAGCC  -0.487
75. ACAAUAC  -0.48
76. ACACAUC  -0.477
77. CAUGUUA  -0.474
78. UCUGAGA  -0.464
79. GAUCGAC  -0.457
80. ACGUUUG  -0.451
81. CAUUAUA  -0.451
82. CAUUGGC  -0.444
83. GCACACC  -0.435
84. UGUCUAG  -0.431
85. GCCGCCA  -0.418
86. GCCAUAG  -0.415
87. AUUCGGC  -0.412
88. CGAGUAU  -0.409
89. UAAACAC  -0.405
90. GACCAAA  -0.392
91. UUGCAUA  -0.379
92. CCGUGUG  -0.373
93. CCCUGCC  -0.353
94. UGGCCCA  -0.35
95. UACUGAA  -0.347
96. GCGUGUC  -0.347
97. UGAUACU  -0.34
98. UCGCCGG  -0.34
99. GUCCCGC  -0.334
100. ACAGAAU  -0.318
101. UUGAUUA  -0.314
102. UUCUGGA  -0.311
103. CGAGCCA  -0.305
104. GAUCGCA  -0.298
105. AGUUAUA  -0.295
106. CUGCCCC  -0.292
107. ACAGCGU  -0.288
108. GACAAAU  -0.282
109. CGUCAAA  -0.279
110. ACGUCAC  -0.266
111. UAGAAAU  -0.262
112. AGUAUAC  -0.259
113. GCGCCGC  -0.259
114. UGCGCGA  -0.249
115. CGCUGCA  -0.243
116. CAUGAGA  -0.201
117. AGCAAGU  -0.181
118. GCACCAC  -0.165
119. CGUAGAU  -0.158
120. UGCUCGG  -0.152
121. AUGCACA  -0.149
122. CCGGAAA  -0.142
123. UGCUGAU  -0.139
124. AAGCGCG  -0.0479
125. GUAGUUU  -0.0479
126. GUUGCAC  -0.0382
127. ACAGACA  -0.00896
128. GUAGACC  0.00729
129. GUCAGAA  0.03
130. UGUGAAA  0.082
131. UGAGUAC  0.153
132. CACGGAU  0.163
133. GUAGCGC  0.183
134. AGCGUGU  0.183
135. AUGGCAC  0.218
136. GCGAUCG  0.222
137. UGGUCAU  0.225
138. AGAUUGA  0.235
139. GUUAGAC  0.264
140. GUAGGCC  0.27
141. AGUGCGU  0.29
142. CAGAGAU  0.309
143. GAUAAGU  0.313
144. UGCUGAG  0.378
145. UGGACUA  0.417
146. AGAAGAU  0.459
147. GAAAUGA  0.504
148. CUGGAUG  0.53
149. UGCGGUU  0.573
150. GCGGUCG  0.69
151. GCUACGG  0.693
152. UGGUCAG  0.722
153. CGCGAGG  0.738
154. CUGGGUC  0.751
155. GUUUGGU  0.755
156. AUGUGCG  0.758
157. UCUGGGU  0.81
158. CAGAGUG  0.923
159. ACGGUAU  0.985
160. GGACACG  0.998
161. GGUUUGA  1.07
162. UUGGGCA  1.09
163. AAGCGGU  1.1
164. GUUUUGG  1.15
165. GCAGGUA  1.48
166. GUGUAGA  1.5
167. AAAGCGG  1.55
168. GAGGACG  1.56
169. UGGAGUA  1.67
170. GAAAGGC  1.7
171. GGAUGCA  1.79
172. GGAAUGU  1.94
173. AUGGAAC  1.99
174. AUAAGGA  2.08
175. GGCAGGA  2.31
176. UAUAGGG  2.69
177. UCGGGGG  2.83
178. GGGGAGU  2.84
179. UAAAGGG  2.85
180. UGUGGGA  2.87
181. UAAGGGU  3.44
182. AAAGGUG  3.71
183. CGGGGUG  3.76
184. AGGGUGG  4.42
